From patent US20250214977A1, “STAT6 INHIBITORS AND USES THEREOF” (Kymera Therapeutics, Inc., priority 2024, published 2025)

Target: T1, biotinylated truncated STAT6 (123-632)-avi (Homo sapiens, UniProt P42226)
T1 sequence (P42226 123-632 limits assumed): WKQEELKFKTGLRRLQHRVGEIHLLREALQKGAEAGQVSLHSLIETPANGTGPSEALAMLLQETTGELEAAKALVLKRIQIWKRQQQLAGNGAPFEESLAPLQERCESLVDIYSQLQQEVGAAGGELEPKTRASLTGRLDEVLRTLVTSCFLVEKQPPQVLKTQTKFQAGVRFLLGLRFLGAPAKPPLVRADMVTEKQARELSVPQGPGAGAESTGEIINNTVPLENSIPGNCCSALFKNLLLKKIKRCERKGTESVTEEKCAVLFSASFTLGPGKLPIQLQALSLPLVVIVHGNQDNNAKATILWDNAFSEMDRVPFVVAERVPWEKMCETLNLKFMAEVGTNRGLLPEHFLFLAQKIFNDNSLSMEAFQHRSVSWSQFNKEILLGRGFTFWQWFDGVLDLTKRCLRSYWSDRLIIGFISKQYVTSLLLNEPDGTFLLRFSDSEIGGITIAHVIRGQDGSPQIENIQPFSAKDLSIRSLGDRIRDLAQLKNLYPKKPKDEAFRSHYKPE
Assay: Homogenous Time-Resolved Fluorescence (HTRF) binding assay
Settings: 0.15 nM biotinylated truncated STAT6 (123-632)-avi, 20 nM fluorescein-labeled probe, 30 minutes at room temperature

Compound | IC50
CCOc1cccnc1N1CCN(C(=O)c2cc3c(-c4ccccc4OC)cc(C4=CCCN(C(=O)CCn5ccnn5)C4)c(F)c3[nH]2)CC1 [Example I-335] | < 100 nM
COc1ccccc1-c1cc(C2=CCCN(C(=O)CCn3ccnn3)C2)c(F)c2[nH]c(C(=O)N3CCN(c4ncccc4OC4CC4)CC3)cc12 [Example I-336] | < 100 nM
COc1cccnc1N1CCN(C(=O)c2cc3ccc(C4=CCCN(C(=O)CCn5ccnn5)C4)c(F)c3[nH]2)CC1 [Example I-338] | < 100 nM
COc1ccccc1-c1cc(C2=CCCN(C(=O)CCn3ccnn3)C2)c(F)c2[nH]c(C(=O)N3CCN(c4nc5ccccc5nc4C)CC3)cc12 [Example I-339] | < 100 nM
COc1ccccc1-c1cc(C2=CCCN(C(=O)CCn3ccnn3)C2)c(F)c2[nH]c(C(=O)N3CCN(c4cc5c(cnn5C)cc4C)CC3)cc12 [Example I-341] | < 100 nM
O=C(CCn1ccnn1)N1CCC=C(c2cc(-c3ccccc3F)c3cc(C(=O)N4CCN(c5ncccc5OC5CC5)CC4)[nH]c3c2F)C1 [Example I-343] | < 100 nM
COc1ccccc1-c1cc(C2=CCCN(C(=O)CCn3cccn3)C2)c(F)c2[nH]c(C(=O)N3CCN(c4ncccc4OC4CC4)CC3)cc12 [Example I-345] | < 100 nM
COc1ccccc1-c1cc(C2=CCCN(C(=O)CCn3ccnn3)C2)c(F)c2sc(C(=O)N3CCN(c4ncccc4OC)CC3)cc12 [Example I-346] | < 100 nM
COc1ccccc1-c1cc(C2=CCCN(C(=O)CCn3ccnn3)C2)c(F)c2[nH]c(C(=O)N3CCN(c4cccnc4OC)CC3)cc12 [Example I-347] | < 100 nM
COc1ccccc1-c1cc(C2CCCN(C(=O)CCn3ccnn3)C2)c(F)c2[nH]c(C(=O)N3CCN(c4ncccc4OC)CC3)cc12 (stereo not shown) [Example I-348] | < 100 nM
COc1ccccc1-c1cc(C2=CCCN(C(=O)CCn3ccnn3)C2)c(F)c2[nH]c(C(=O)N3CCN(c4c(OC)cccc4OC)CC3)cc12 [Example I-350] | < 100 nM
CNc1cnc(N2CCN(C(=O)c3cc4c(-c5ccccc5OC)cc(C5=CCCN(C(=O)CCn6ccnn6)C5)c(F)c4[nH]3)CC2)c(OC)c1 [Example I-353] | < 100 nM
COc1ccccc1-c1cc(C2=CCCN(C(=O)CCn3ccnn3)C2)c(F)c2[nH]c(C(=O)N3CCN(c4ncc(C5CC5)cc4OC)CC3)cc12 [Example I-354] | 100 to 1000 nM
COc1ccccc1-c1cc(C2=CCCN(C(=O)CCn3ccnn3)C2)c(F)c2[nH]c(C(=O)N3CCN(c4nccc5ccncc45)CC3)cc12 [Example I-355] | < 100 nM
COc1ccccc1-c1cc(C2=CCCN(C(=O)CCn3ccnn3)C2)c(F)c2[nH]c(C(=O)N3CCN(c4cc(C#N)ccc4OC)CC3)cc12 [Example I-356, 3-(4-(6-(1-(3-(1H-1,2,3-triazol-1-yl)propanoyl)-1,2,5,6-tetrahydropyridin-3-yl)-7-fluoro-4-(2-methoxyphenyl)-1H-indole-2-carbonyl)piperazin-1-yl)-4-methoxybenzonitrile] | < 100 nM
COc1ccccc1-c1cc(C2=CCCN(C(=O)CCn3ccnn3)C2)c(F)c2[nH]c(C(=O)N3CCN(c4ncccc4OC(F)F)CC3)cc12 [Example I-358] | < 100 nM
COc1cccc(N2CCN(C(=O)c3cc4c(-c5ccccc5OC)cc(C5=CCCN(C(=O)CCn6ccnn6)C5)c(F)c4[nH]3)CC2)n1 [Example I-359] | < 100 nM
COC(=O)c1ccc(OC)c(N2CCN(C(=O)c3cc4c(-c5ccccc5OC)cc(C5=CCCN(C(=O)CCn6ccnn6)C5)c(F)c4[nH]3)CC2)n1 [Example I-360] | < 100 nM
COc1ccccc1-c1cc(C2=CCCN(C(=O)CCn3ccnn3)C2)c(F)c2[nH]c(C(=O)N3CCN(c4ncccc4F)CC3)cc12 [Example I-361] | < 100 nM
COc1ccccc1-c1cc(C2=CCCN(C(=O)CCn3ccnn3)C2)c(F)c2[nH]c(C(=O)N3CCN(c4nccc5cnccc45)CC3)cc12 [Example I-362] | < 100 nM
COc1ccccc1-c1cc(C2=CCCN(C(=O)CCn3ccnn3)C2)c(F)c2[nH]c(C(=O)N3CCN(c4nccc5ccccc45)CC3)cc12 [Example I-363] | < 100 nM
COc1ccccc1-c1cc(C2CCCN(C(=O)CCn3ccnn3)C2)c(F)c2[nH]c(C(=O)N3CCN(c4ncccc4OC4CC4)CC3)cc12 (stereo not shown) [Example I-364] | < 100 nM
COc1ccccc1-c1cc(C2=CCCN(C(=O)CCn3ccnn3)C2)c(F)c2[nH]c(C(=O)N3CCN(c4ccncc4OC)CC3)cc12 [Example I-365] | < 100 nM
COc1cnccc1-c1cc(C2=CCCN(C(=O)CCn3ccnn3)C2)c(F)c2[nH]c(C(=O)N3CCN(c4ncccc4OC)CC3)cc12 [Example I-366] | < 100 nM
COc1ccccc1-c1cc(C2=CCCN(C(=O)CCn3ccnn3)C2)c(F)c2[nH]c(C(=O)N3CCN(c4c(F)cccc4OC)CC3)cc12 [Example I-367] | < 100 nM

Compound | IC50
COc1ccncc1-c1cc(C2=CCCN(C(=O)CCn3ccnn3)C2)c(F)c2[nH]c(C(=O)N3CCN(c4ncccc4OC)CC3)cc12 [Example I-368] | < 100 nM
COc1ccccc1-c1cc(C2=CCCN(C(=O)CCn3ccnn3)C2)c(F)c2[nH]c(C(=O)N3CCN(c4ncc(Cl)cc4OC)CC3)cc12 [Example I-369] | < 100 nM
COc1ccccc1-c1cc(C2=CCCN(C(=O)CCn3ccnn3)C2)c(F)c2[nH]c(C(=O)N3CCN(c4ncc(F)cc4OC)CC3)cc12 [Example I-370] | < 100 nM
COc1cccnc1N1CCN(C(=O)c2cc3c(-c4cccc(F)c4F)cc(C4=CCCN(C(=O)CCn5ccnn5)C4)c(F)c3[nH]2)CC1 [Example I-371] | < 100 nM
C#Cc1cc(C2=CCCN(C(=O)CCn3ccnn3)C2)cc2cc(C(=O)N(C)C)oc12 [Example I-373, 5-(1-(3-(1H-1,2,3-triazol-1-yl)propanoyl)-1,2,5,6-tetrahydropyridin-3-yl)-7-ethynyl-N,N-dimethylbenzofuran-2-carboxamide] | < 100 nM
CN(C)C(=O)c1cc2c(F)c(C3=CCCN(C(=O)C4Cc5ccccc5CN4C=O)C3)ccc2o1 (stereo not shown) [Example I-374, 4-fluoro-5-(1-(2-formyl-1,2,3,4-tetrahydroisoquinoline-3-carbonyl)-1,2,5,6-tetrahydropyridin-3-yl)-N,N-dimethylbenzofuran-2-carboxamide] | < 100 nM
COc1ccc(F)cc1-c1cc(C2=CCCN(C(=O)CCn3ccnn3)C2)c(F)c2[nH]c(C(=O)N3CCN(c4ncccc4OC)CC3)cc12 [Example I-395] | < 100 nM
COc1cccnc1N1CCN(C(=O)c2cc3c(-c4ccc5ccccc5c4OC)cc(C4=CCCN(C(=O)CCn5ccnn5)C4)c(F)c3[nH]2)CC1 [Example I-396] | < 100 nM
COc1cccnc1N1CCN(C(=O)c2cc3c(-c4cccc5ccccc45)cc(C4=CCCN(C(=O)CCn5ccnn5)C4)c(F)c3[nH]2)CC1 [Example I-397] | < 100 nM
COc1cccnc1N1CCN(C(=O)c2cc3c(-c4cccc(F)c4OC)cc(C4=CCCN(C(=O)CCn5ccnn5)C4)c(F)c3[nH]2)CC1 [Example I-399] | < 100 nM
COc1ccncc1-c1cc(C2=CCCN(C(=O)CCn3ccnn3)C2)c(F)c2[nH]c(C(=O)N3CCN(c4ccccc4)CC3)cc12 [Example I-400] | < 100 nM
COc1ccccc1-c1cc(C2=CCCN(C(=O)CCn3ccnn3)C2)c(F)c2[nH]c(C(=O)N3CCN(c4cc5cc[nH]c5nc4C#N)CC3)cc12 [Example I-401] | < 100 nM
COc1cccnc1N1CCN(C(=O)c2cc3c(-c4cnc5ccccc5c4OC)cc(C4=CCCN(C(=O)CCn5ccnn5)C4)c(F)c3[nH]2)CC1 [Example I-402] | < 100 nM
COc1ccccc1N1CCN(C(=O)c2cc3c(-c4cnccc4OC(C)C)cc(C4=CCCN(C(=O)CCn5ccnn5)C4)c(F)c3[nH]2)CC1 [Example I-403] | < 100 nM
COc1ccccc1N1CCN(C(=O)c2cc3c(-c4cnccc4OCF)cc(C4=CCCN(C(=O)CCn5ccnn5)C4)c(F)c3[nH]2)CC1 [Example I-405] | < 100 nM
CCOc1ccncc1-c1cc(C2=CCCN(C(=O)CCn3ccnn3)C2)c(F)c2[nH]c(C(=O)N3CCN(c4ccccc4OC)CC3)cc12 [Example I-406] | < 100 nM
COc1cnccc1-c1cc(C2=CCCN(C(C)=O)C2)c(F)c2[nH]c(C(=O)N3CCN(c4ncccc4OC)CC3)cc12 [Example I-408] | < 100 nM
COc1ccncc1-c1cc(C2=CCCN(C(C)=O)C2)c(F)c2[nH]c(C(=O)N3CCN(c4ccccc4OC)CC3)cc12 [Example I-409] | 100 to 1000 nM
COc1cccnc1N1CCN(C(=O)c2cc3c(-c4cccnc4OC)cc(C4=CCCN(C(=O)CCn5ccnn5)C4)c(F)c3[nH]2)CC1 [Example I-410] | < 100 nM
COc1cccnc1N1CCN(C(=O)c2cc3c(-c4cccc(Cl)c4OC)cc(C4=CCCN(C(=O)CCn5ccnn5)C4)c(F)c3[nH]2)CC1 [Example I-411] | < 100 nM
CCOc1ccccc1-c1cc(C2=CCCN(C(=O)CCn3ccnn3)C2)c(F)c2[nH]c(C(=O)N3CCN(c4ncccc4OC)CC3)cc12 [Example I-412] | < 100 nM
COc1ccccc1-c1cc(C2=CCCN(C(=O)CCn3ccnn3)C2)c(F)c2[nH]c(C(=O)N3CCN(c4ncc(C5CC5)cc4OC4CC4)CC3)cc12 [Example I-413] | 100 to 1000 nM
COc1ccccc1-c1cc(C2=CCCN(C(=O)CCn3ccnn3)C2)c(F)c2[nH]c(C(=O)N3CCN(c4c(OC)cccc4Oc4ccccc4)CC3)cc12 [Example I-414] | 100 to 1000 nM
COc1ccccc1-c1cc(C2=CCCN(C(=O)CCn3ccnn3)C2)c(F)c2[nH]c(C(=O)N3CCN(c4nccc(C)c4OC)CC3)cc12 [Example I-415] | < 100 nM
